# Measurements taken from PubChem BioAssay AID1466 (National Center for Advancing Translational Sciences (NCATS), 2008).
# In all, about 200,000 compounds went through this assay and about 10 (0.005%) were called active. The inconclusive results got no clear call from the source; some entries with a clear call stand among them for comparison. The call rests on the fitted dose curve; in most records, active means well fitted inhibition curve with a large enough effect; inconclusive means small, poorly fitted or top-dose-only effect, or effect the other way, or another doubt; inactive means no such curve, though single readings can be large or run the other way. Potencies beside an inconclusive call are fits to weak or partial responses and may not hold up.
# Target: Lysosomal alpha-glucosidase (Homo sapiens) (UniProt P10253)
# Test: qHTS Assay for Inhibitors of Human alpha-Glucosidase as a Potential Chaperone Treatment of Pompe Disease;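 on activity change, negative = inhibition: plate controls were uninhibited enzyme wells for no effect and no-enzyme background for full effect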
# Conditions: purified human GAA, 4-MU-alpha-glucoside fluorescence; activity change, negative = inhibition: at 76.9 µM (top of the series) unless noted
# Method in brief: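 Fluorogenic assay: 4 nM human alpha-glucosidase with 400 uM 4-methylumbelliferyl-alpha-D-pyranoside in 50 mM citrate/phosphate, 0.005% Tween-20, pH 5.0, 20 min at room temperature. Compounds tested up to 77 uM; AC50 from Hill fits.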
# Potency means the concentration at half of the fitted maximal effect; tags describe the fitted curve by direction and shape.
Structure (SMILES),Potency,"activity change, negative = inhibition"
O=c1cc2c(nn1Cc1ccc(F)cc1)-c1ccccc1CC2,"inconclusive: 1.26 µM [inhibitor, full curve, poor fit]",–
CN(C)CCNC(=O)/C(=C/c1ccc(-c2cccc([N+](=O)[O-])c2)o1)NC(=O)c1ccccc1,"inconclusive: 25.1 µM [inhibitor, single point]",–
CC(NC(=O)Nc1ccccc1F)C(C)(C)C (stereo not given),–,inconclusive: 17.9% [activator]
O=c1c2cc(N3CCOCC3)ccc2[nH]c(=S)n1Cc1ccccn1,"inconclusive: 0.224 µM [inhibitor, full curve, poor fit]",–
COc1ccc(S(=O)(=O)N2CCN(C(=O)Cc3cccs3)CC2)cc1,"inconclusive: 31.6 µM [inhibitor, partial curve, poor fit]",–
Cc1cc(C(=O)N(C2CCCCC2)C2CCCCC2)no1,"inconclusive: 12.6 µM [inhibitor, partial curve]",–
C=CCSc1nc(NC)c2sccc2n1,"inconclusive: 56.2 µM [inhibitor, single point]",–
CCOc1ccc2nc(N3C(=O)/C(=C/c4ccccc4)NC3=S)sc2c1,–,inconclusive: -17.8% [inhibitor]
CC1CCc2nc(NC(=O)CN3CCN(Cc4ccc5c(c4)OCO5)CC3)sc2C1 (stereo not given),"inconclusive: 35.5 µM [inhibitor, single point]",–
CCSc1nc2ccccc2n1CC(=O)O,–,inconclusive: 16.2% [activator]
Cc1ccc(S(=O)(=O)c2c(N)n(CC3CCOC3)c3nc4ccccc4nc23)cc1 (stereo not given),"inconclusive: 35.5 µM [activator, partial curve]",–
O=C(Nc1nc(N2C(=O)c3ccccc3C2=O)n(-c2ccccc2)n1)c1ccc(Cl)cc1,"inconclusive: 44.7 µM [inhibitor, single point]",–
O=C(O)C1C(c2ccccc2)C(C(=O)Oc2ccc(O)cc2)C1c1ccccc1 (stereo not given),"inconclusive: 39.8 µM [inhibitor, single point]",–
CCN=C1S/C(=C\c2ccc(Sc3ccc(Cl)cc3)o2)C(=O)N1CC,"inconclusive: 56.2 µM [inhibitor, single point]",–
Cc1oc2cc(O)ccc2c(=O)c1Oc1ccccc1Br,–,inconclusive: 20.1% [activator]
N/N=c1\sc2ccccc2n1-c1ccccc1,–,inactive: -2.74%
CCN(CC)S(=O)(=O)c1ccc(NC(=O)C(C)N(c2ccc(OC)cc2)S(C)(=O)=O)cc1 (stereo not given),"inconclusive: 3.55 µM [inhibitor, full curve]",–
O=C(OCCNc1ncc(C(F)(F)F)cc1Cl)c1ccc(S(=O)(=O)N2CCOCC2)cc1,"inconclusive: 35.5 µM [inhibitor, single point]",–
O=C(Nc1ccccc1)c1ccc(NCc2cccnc2)c(S(=O)(=O)N2CCOCC2)c1,"inconclusive: 31.6 µM [inhibitor, single point]",–
Cc1[nH]c2ccc(-c3nnc(SCC(=O)N4CCCc5ccccc54)o3)cc2c1C,"inconclusive: 3.55 µM [inhibitor, full curve]",–
CCC(=O)c1ccc(OCCN2CCOCC2)cc1,"inconclusive: 35.5 µM [inhibitor, single point]",–
CCN(CC)S(=O)(=O)c1cccc(C(=O)OCC(=O)c2ccc3c(c2)NC(=O)CO3)c1,"inconclusive: 31.6 µM [inhibitor, single point]",–

Structure (SMILES),Potency,"activity change, negative = inhibition"
Cc1ccsc1/C=N/NC(=O)CSCc1ccc(Cl)cc1,–,inconclusive: -17.4% [inhibitor]
CC(=O)Nc1ccc(S(=O)(=O)NC2=C(N3CCN(Cc4ccccc4)CC3)C(=O)c3ccccc3C2=O)cc1,–,inactive: -7.36%
COc1ccc(Br)cc1S(=O)(=O)N1CCN=C1C,"inconclusive: 7.94 µM [inhibitor, full curve]",–
O=C(Nc1ccc(COc2ccccc2)cc1)Oc1ccccc1N1CCOCC1,–,inactive: -7.73%
O=C1Nc2ccccc2C12OCCCO2,"inconclusive: 56.2 µM [activator, single point]",–
CC1=C(C(=O)OC(C)C)C(c2cn(-c3ccccc3)nc2-c2cccs2)NC(=O)N1 (stereo not given),"inconclusive: 28.2 µM [inhibitor, single point]",–
Cn1cc(/C=C2\SC(=S)N(NC(=O)c3ccccc3Cl)C2=O)c2ccccc21,"inconclusive: 56.2 µM [inhibitor, single point]",–
COCCCNc1nc2c(-c3cccc(C(F)(F)F)c3)nnn2c2ccccc12,"inconclusive: 10 µM [activator, partial curve]",–
COC(=O)/C=C/c1ccc(OC(=O)OC)c(OC(=O)OC)c1,"inconclusive: 35.5 µM [inhibitor, single point]",–
COc1cccc(CNS(=O)(=O)c2cn(C)cn2)c1,"inconclusive: 56.2 µM [inhibitor, single point]",–
CCOc1ccccc1N1CCN(S(=O)(=O)c2ccc(Cl)s2)CC1,"inconclusive: 56.2 µM [inhibitor, single point]",–
COc1ccccc1NC(=O)c1cc2n(n1)C(C(F)(F)F)CC(c1ccc3c(c1)OCO3)N2 (stereo not given),"inconclusive: 22.4 µM [inhibitor, partial curve]",–
Cc1cc(/C=N/NC(=O)c2c(Br)cnn2C)c(C)n1-c1cccc(Br)c1,"inconclusive: 56.2 µM [inhibitor, single point]",–
Cc1ccc(C(OC(=O)c2ccco2)C(=O)NC2CCCCC2)cc1 (stereo not given),–,inconclusive: 15.1% [activator]
COc1ccc(CSc2nnc(C)n2N)cc1[N+](=O)[O-],–,inconclusive: 10.4% [activator]
COc1ccc(CCNC(=O)/C(=C/c2cccnc2)NC(=O)c2ccccc2)cc1,"inconclusive: 56.2 µM [inhibitor, single point]",–
Cc1ccc(C)c(C(=O)NC(C)CCc2ccccc2)c1 (stereo not given),–,inactive: -1.57%
COC(=O)C1=C(C)N(c2cccc(OC)c2)C(=O)/C1=C\c1ccco1,"inconclusive: 56.2 µM [inhibitor, single point]",–
Cc1ccc(C)n1-c1nc(=S)[nH][nH]1,"inconclusive: 56.2 µM [inhibitor, single point]",–
COc1cccc(-c2nn(-c3ccccc3)cc2CN(C)Cc2c(C)nc3ccccn23)c1,"inconclusive: 25.1 µM [inhibitor, single point]",–
NC(=S)N/N=C/c1cccc(O)c1O,–,inconclusive: 19% [activator]
CC1CCCC(C)N1/N=C/C=C/c1ccccc1[N+](=O)[O-] (stereo not given),–,inconclusive: -17.3% [inhibitor]

Structure (SMILES),Potency,"activity change, negative = inhibition"
COCCn1c(C)cc(C(=O)COC(=O)c2n[nH]c3ccccc23)c1C,"inconclusive: 50.1 µM [inhibitor, single point]",–
COc1ccc2c(c1)CC/C(=C\C=C\c1ccccc1)C2=O,"inconclusive: 56.2 µM [inhibitor, single point]",–
CCCC(=O)N1c2ccccc2NC2=C(C(=O)CCC2)C1c1ccc(F)cc1 (stereo not given),"inconclusive: 50.1 µM [inhibitor, single point]",–
CO/N=C\CC(=O)Nc1ccc(Cl)c(Cl)c1,–,inconclusive: 14.3% [activator]
COc1ccc(-n2c(N)c(C(=O)NCC3CCCO3)c3nc4ccccc4nc32)c(OC)c1 (stereo not given),"inconclusive: 31.6 µM [activator, partial curve]",–
O=[N+]([O-])c1cc(C(F)(F)F)ccc1Sc1ccc2ccccc2n1,"inconclusive: 50.1 µM [inhibitor, single point]",–
CC(=O)Oc1cccc(N2C(=O)C3CC=C(Cl)CC3C2=O)c1 (stereo not given),"inconclusive: 10 µM [inhibitor, single point]",–
COc1ccc(CNC(=O)CN(C(=O)Cn2nnc(-c3ccccc3F)n2)c2ccc(C)cc2)cc1,"inconclusive: 4.47 µM [inhibitor, single point]",–
COc1ccc(-c2nc3cccc(C)n3c2NCC2CCCO2)cc1O (stereo not given),–,inactive: 11.5%
CCC(C)C1NC(=S)N(Cc2ccccc2)C1=O (stereo not given),–,inconclusive: 9.26% [activator]
O=C(Nc1nccs1)C1CCCN1S(=O)(=O)c1ccc(F)cc1 (stereo not given),"inconclusive: 50.1 µM [inhibitor, single point]",–
CC1CCN(C(=O)COC(=O)c2cc(Cl)cc(Cl)c2N)CC1,"inconclusive: 35.5 µM [activator, single point]",–
CSc1ccccc1C(=O)Nc1ccc(C)cc1C,–,inconclusive: 14% [activator]
Cc1c(NC(=O)CSCc2c(F)cccc2Cl)c(=O)n(-c2ccccc2)n1C,"inconclusive: 11.2 µM [inhibitor, single point]",–
CCOC(=O)CCSc1nc2c(c(C(F)(F)F)c1C#N)CCC2,"inconclusive: 2.24 µM [inhibitor, partial curve]",–
CNc1oc(-c2cccc3ccccc23)nc1C#N,"inconclusive: 31.6 µM [activator, partial curve]",–
Cc1nn(-c2ccccc2)c(Cl)c1/C=N/Nc1nc2ccccc2n1C,"inconclusive: 22.4 µM [inhibitor, partial curve]",–
Cc1ccc2c(c1)C1CN(C)CCC1N2CC(=O)N(C)c1ccccc1 (stereo not given),"inconclusive: 0.178 µM [inhibitor, full curve, poor fit]",–
COc1ccc(-c2cc(C(=O)Nc3c(C)nn(Cc4ccccc4Cl)c3C)no2)cc1OC,"inconclusive: 6.31 µM [inhibitor, full curve, poor fit]",–
COc1ccc(/C=C/C(=O)c2cc3c(cc2N)OCO3)cc1,"inconclusive: 44.7 µM [inhibitor, single point]",–
O=C(Cn1nnc(-c2cc(C(F)(F)F)cc(C(F)(F)F)c2)n1)NNC(=S)Nc1ccc(Cl)cc1,–,inconclusive: -22.8% [inhibitor] [at 15.4 µM]
